In publication PMC9810599:
Positions count from the first letter of the chain named. Names may count otherwise. No constants are given. Whether binding was seen depends on the method and setting. Binding seen in cells or lysates may run through a third protein. Some binding calls cover weakened binding; strength is not graded here. For some of these results: Sequences can lack the tags named with a protein.

Chains of the proteins cited; added tags and fusions are not shown. Lines headed by an entry give the natural chain unless they say otherwise; changes in a name come on top. Residues count along the entry.
UniProt P0CS90, residues 24-654: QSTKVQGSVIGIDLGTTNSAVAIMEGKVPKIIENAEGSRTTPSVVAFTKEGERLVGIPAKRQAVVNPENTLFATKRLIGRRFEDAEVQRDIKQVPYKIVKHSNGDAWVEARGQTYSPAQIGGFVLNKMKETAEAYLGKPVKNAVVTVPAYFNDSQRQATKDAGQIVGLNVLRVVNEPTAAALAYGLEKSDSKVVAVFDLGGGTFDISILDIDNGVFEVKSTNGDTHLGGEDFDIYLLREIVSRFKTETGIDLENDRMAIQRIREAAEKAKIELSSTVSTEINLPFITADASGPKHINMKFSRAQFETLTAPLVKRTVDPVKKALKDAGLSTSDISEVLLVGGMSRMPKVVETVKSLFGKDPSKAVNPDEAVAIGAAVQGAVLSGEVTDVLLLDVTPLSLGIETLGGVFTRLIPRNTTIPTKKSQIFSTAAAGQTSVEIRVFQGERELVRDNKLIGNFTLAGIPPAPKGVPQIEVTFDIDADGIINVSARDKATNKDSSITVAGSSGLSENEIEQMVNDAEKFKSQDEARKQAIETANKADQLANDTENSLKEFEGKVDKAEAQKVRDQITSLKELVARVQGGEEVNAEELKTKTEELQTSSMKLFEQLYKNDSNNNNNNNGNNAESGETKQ
UniProt P07251, residues 36-545: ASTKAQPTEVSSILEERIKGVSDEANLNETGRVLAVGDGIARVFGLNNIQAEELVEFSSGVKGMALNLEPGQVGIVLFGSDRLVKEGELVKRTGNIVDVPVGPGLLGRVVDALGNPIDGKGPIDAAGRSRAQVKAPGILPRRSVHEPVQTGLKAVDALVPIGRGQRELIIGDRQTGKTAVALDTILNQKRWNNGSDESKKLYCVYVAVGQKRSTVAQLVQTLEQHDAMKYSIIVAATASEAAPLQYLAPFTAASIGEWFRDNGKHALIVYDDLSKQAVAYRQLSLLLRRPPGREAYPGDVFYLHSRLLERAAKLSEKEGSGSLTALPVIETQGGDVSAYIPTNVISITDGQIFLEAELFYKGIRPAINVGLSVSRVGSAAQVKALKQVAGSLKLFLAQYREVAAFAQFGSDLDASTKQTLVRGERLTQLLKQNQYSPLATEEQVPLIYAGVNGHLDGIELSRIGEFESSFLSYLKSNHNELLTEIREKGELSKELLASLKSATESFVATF

B1: Atp5 (oligomycin sensitivity conferring protein, OSCP) (protein, UniProt P09457 18-212)
chain: ASKAAAPPPVRLFGVEGTYATALYQAAAKNSSIDAAFQSLQKVESTVKKNPKLGHLLLNPALSLKDRNSVIDAIVETHKNLDGYVVNLLKVLSENNRLGCFEKIASDFGVLNDAHNGLLKGTVTSAEPLDPKSFKRIEKALSASKLVGQGKSLKLENVVKPEIKGGLIVELGDKTVDLSISTKIQKLNKVLEDSI
B2: Atp4 (subunit b of the ATP synthase) (protein, UniProt P05626 36-244)
chain: MSSTPEKQTDPKAKANSIINAIPGNNILTKTGVLGTSAAAVIYAISNELYVINDESILLLTFLGFTGLVAKYLAPAYKDFADARMKKVSDVLNASRNKHVEAVKDRIDSVSQLQNVAETTKVLFDVSKETVELESEAFELKQKVELAHEAKAVLDSWVRYEASLRQLEQRQLAKSVISRVQSELGNPKFQEKVLQQSISEIEQLLSKLK
B3: Tim17 (protein, UniProt P39515 1-158)
chain: MSADHSRDPCPIVILNDFGGAFAMGAIGGVVWHGIKGFRNSPLGERGSGAMSAIKARAPVLGGNFGVWGGLFSTFDCAVKAVRKREDPWNAIIAGFFTGGALAVRGGWRHTRNSSITCACLLGVIEGVGLMFQRYAAWQAKPMAPPLPEAPSSQPLQA
B4: Pam16 (also termed Tim16) (protein, UniProt P42949 1-149)
chain: MAHRAFIQVIITGTQVFGKAFAEAYRQAASQSVKQGATNASRRGTGKGEYGGITLDESCKILNIEESKGDLNMDKINNRFNYLFEVNDKEKGGSFYLQSKVYRAAERLKWELAQREKNAKAKAGDASTAKPPPNSTNSSGADNSASSNQ
B5: Pam18 (also termed Tim14) (protein, UniProt Q07914 1-168)
chain: MSSQSNTGNSIEAPQLPIPGQTNGSANVTVDGAGVNVGIQNGSQGQKTGMDLYFDQALNYMGEHPVITGFGAFLTLYFTAGAYKSISKGLNGGKSTTAFLKGGFDPKMNSKEALQILNLTENTLTKKKLKEVHRKIMLANHPDKGGSPFLATKINEAKDFLEKRGISK
B6: Atp11 (assembly factor) (protein, UniProt P32453 41-318)
chain: QKYRKKLLEEAQKQGFNSIEELKNHLKETIESKKREFNKIDPLKELEDYQQKTQMENNNSKHLMTKSRSPLDPSAPKVPFKTLDSFLDVGKLKDLSKQEVEFLWRARWAQKDNTLCAVIPVSVYDKMMANARNNPIFVLPLPRQVQSEDAKPNEEQGMELHYIQWQFVGPQTTHCMMTSLAEYKLHQEFARPHTTLQFHSDLVKDKGIVFMNGHVEPDTNVNVQDAQLLLLNVQRFYGAMGEETPVAKQRVQLLRDFSKASPGFTVEKLISLSQSMEN
B7: Atp12 (assembly factor) (protein, UniProt P22135 33-325)
chain: DNTIENNTPTETNRLSKTSQKFWEKVSLNRDVEKGKIALQLDGRTIKTPLGNGIIVDNAKSLLAYLLKLEWSSLSSLSIKTHSLPLTSLVARCIDLQMTNEPGCDPQLVAKIGGNSDVIKNQLLRYLDTDTLLVFSPMNEFEGRLRNAQNELYIPIIKGMEEFLRNFSSESNIRLQILDADIHGLRGNQQSDIVKNAAKKYMSSLSPWDLAILEKTVLTTKSFICGVLLLENKKDTANLIPALKTDMDNIVRAATLETIFQVEKWGEVEDTHDVDKRDIRRKIHTAAIAAFKQ
B8: Atp5, mildly overexpressed from a galactose-inducible promoter (untagged) (protein, UniProt P09457 18-212)
chain: B1 chain
B9: Atp5^G183A, mildly overexpressed from a galactose-inducible promoter (untagged) (protein, UniProt P09457 18-212)
chain: B1 chain with G166A
B10: Tim23 (protein, UniProt P32897 1-222)
chain: MSWLFGDKTPTDDANAAVGGQDTTKPKELSLKQSLGFEPNINNIISGPGGMHVDTARLHPLAGLDKGVEYLDLEEEQLSSLEGSQGLIPSRGWTDDLCYGTGAVYLLGLGIGGFSGMMQGLQNIPPNSPGKLQLNTVLNHITKRGPFLGNNAGILALSYNIINSTIDALRGKHDTAGSIGAGALTGALFKSSKGLKPMGYSSAMVAAACAVWCSVKKRLLEK

biological target: T1, His-tagged Ina22 (Ina22His) (S. cerevisiae) (UniProt P40576); assay: pull-down; Ina17His or Ina22His purified on Ni-NTA agarose from digitonin-lysed mitochondria; also with pre-incubation of the lysate with ATP and with elution of bound proteins by 20 mM ATP; SDS-PAGE and immunodetection
T1 sequence: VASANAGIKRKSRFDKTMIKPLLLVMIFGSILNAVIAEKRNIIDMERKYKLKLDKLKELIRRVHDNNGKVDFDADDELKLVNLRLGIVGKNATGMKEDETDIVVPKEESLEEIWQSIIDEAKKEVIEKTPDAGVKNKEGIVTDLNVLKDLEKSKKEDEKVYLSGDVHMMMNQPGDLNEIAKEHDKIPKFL

**Q.** For B1, which binding is on record?
**A.** binds

**Q.** How did the binding turn out when B2 was run?
**A.** binds

biological target: T2, His-tagged Ina17 (Ina17His) (S. cerevisiae) (UniProt Q02888); assay: as above
T2 sequence: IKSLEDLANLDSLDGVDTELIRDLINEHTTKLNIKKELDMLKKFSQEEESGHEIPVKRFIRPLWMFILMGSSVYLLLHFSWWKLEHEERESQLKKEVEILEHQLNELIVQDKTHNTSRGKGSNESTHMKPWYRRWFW

**Q.** With B1 as the binder, how does the binding read?
**A.** binds

**Q.** How did the binding turn out when B2 was run?
**A.** binds

biological target: mitochondrial Hsp70 (mtHsp70), wild type (S. cerevisiae (endogenous in yeast mitochondria)) (UniProt P0CS90); assay: pull-down; mtHsp70 with its bound proteins captured on Mge1His-coated Ni-NTA agarose from digitonin lysates of mitochondria (wild type, ρ0, atp3∆, atp4∆, atp5∆, atp7∆, atp14∆, ina17∆, ina22∆, ssc1-62, cells overexpressing Atp5 or Atp5^G183A); SDS-PAGE and immunodetection

**Q.** For B1, which binding is on record?
**A.** binds

**Q.** For B3, which binding is on record?
**A.** binds

**Q.** With B4 as the binder, how does the binding read?
**A.** binds

**Q.** B5 was tested. Which binding did it give?
**A.** binds

**Q.** Which binding does the source give for B6 here?
**A.** binds

**Q.** B7 was tested. Which binding did it give?
**A.** binds

**Q.** With B8 as the binder, how does the binding read?
**A.** binds

**Q.** With B9 as the binder, how does the binding read?
**A.** binds

biological target: His-tagged mitochondrial Hsp70 (mtHsp70His) (S. cerevisiae) (UniProt P0CS90); assay: pull-down; mtHsp70His purified on Ni-NTA agarose from digitonin-lysed ρ+ and ρ0 mitochondria, in the absence of ATP; SDS-PAGE and immunodetection

**Q.** With B1 as the binder, how does the binding read?
**A.** binds

**Q.** Which binding does the source give for B3 here?
**A.** binds

**Q.** B4 was tested. Which binding did it give?
**A.** binds

**Q.** With B5 as the binder, how does the binding read?
**A.** binds

**Q.** How did the binding turn out when B6 was run?
**A.** binds

**Q.** Which binding does the source give for B7 here?
**A.** binds

biological target: T3, Tim17His (His-tagged Tim17) (S. cerevisiae) (UniProt P39515); assay: pull-down; mitochondria with the His-tagged bait lysed in 1% digitonin (20 mM Tris/HCl pH 7.4, 0.1 mM EDTA, 50 mM NaCl, 10% glycerol, 10 mM imidazole), bound to Ni-NTA agarose 1 h at 4 °C, washed with 40 mM imidazole, eluted with 250 mM imidazole; SDS-PAGE and immunodetection; WT mitochondria as control
T3 sequence: B3 chain

**Q.** B10 was tested. Which binding did it give?
**A.** binds

**Q.** With B1 as the binder, how does the binding read?
**A.** no binding

biological target: Atp1His (His-tagged Atp1) (S. cerevisiae) (UniProt P07251); assay: as above

**Q.** How did the binding turn out when B10 was run?
**A.** no binding

**Q.** How did the binding turn out when B3 was run?
**A.** no binding
